This is one part of the list. Sequences were assembled here from the parent chain. Inactive controls read about 0.05.
B1: TEV protease; numbered along this chain (parent)
chain: MGESLFKGPRDYNPISSSICHLTNESDGHTTSLYGIGFGPFIITNKHLFRRNNGTLVVQSLHGVFKVKDTTTLQQHLVDGRDMIIIRMPKDFPPFPQKLKFREPQREERICLVTTNFQTKSMSSMVSDTSCTFPSGDGIFWKHWIQTKDGQCGSPLVSTRDGFIVGIHSASNFTNTNNYFTSVPKNFMELLTNQEAQQWVSGWRLNADSVLWGGHKVFMVKPEEPFQPVKEATQL

Variants of: B1
Assay: raw area under fraction-flipped curve 0-4 h after induction (AUC4h, not background-subtracted), DNA-recorder readout of cleavage of the substrate (dimensionless); higher = more cleavage of the substrate by the protease variant
Settings: temperature: 34 °C; time window: 0-4 h after rhamnose induction
Protocol: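 In vivo DNA recorder in E. coli TOP10(DE3) ΔrhaA at 34 °C. Each TEVp single-site mutant (parent TEVp 0) is paired with a single-site variant of the 7-mer TEVs (canonical ENLYFQ|S). The substrate sits between flexible linkers in a Bxb1-sfGFP-TEVs-SsrA fusion, so cleavage stabilises Bxb1 and speeds flipping of a recombination array, read by NGS. The value is the raw area under the fraction-flipped curve over 0-4 h after rhamnose induction (AUC4h), with ≥20 reads per time point. It is not background-subtracted; inactive controls average about 0.047.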
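Further: Bxb1 expression induced with 0.2% (w/v) L-rhamnose at OD600 near 0.5, cultures sampled hourly, flipped fraction per protease–substrate barcode pair counted by paired-end Illumina sequencing.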

Variant	area with substrate ENLYFQA	area with substrate ENLYFQC	area with substrate ENLYFQI	area with substrate ENLYFQQ	area with substrate ENLYFQS	area with substrate ENLYFQT	area with substrate ENLYFQW	area with substrate ENLYFQG	area with substrate ENLYFQH	area with substrate ENLYFQR	area with substrate ENLYFQV	area with substrate ENLYFQY	area with substrate ENLYFQF	area with substrate ENLYFQK	area with substrate ENLYFQD	area with substrate ENLYFQL	area with substrate ENLYFQM	area with substrate ENLYFQP	area with substrate ENLYFQN	area with substrate ENLYFQE
S209K	0.0814	0.112	0.0589	0.0679	0.0823	0.0642	0.0598													
S209G	0.0919	0.0793	0.0627		0.093	0.0516		0.0873	0.0588	0.0614	0.0632	0.0864								
K230A	0.098				0.0993	0.0608	0.0711		0.0849	0.0581			0.0744	0.061						
E231I	0.122		0.0517		0.0993	0.0606		0.0724		0.0557	0.0754	0.059		0.049	0.0708	0.0614	0.087	0.0665		
L235C	0.0862	0.0877			0.0934	0.0825			0.0686	0.0519	0.0741	0.0581					0.0546	0.0561		
L235T	0.102				0.113			0.0714		0.0696			0.101	0.0553	0.0777	0.0589			0.0753	
V210P	0.0586	0.0703			0.0645	0.0625	0.0621		0.0613			0.0494	0.0774	0.0582		0.0496	0.0544			
E3V		0.17	0.0442		0.155	0.0555	0.088	0.137		0.0561						0.0605	0.113	0.0838	0.0865	
E3D		0.134	0.0579		0.117		0.0855	0.128		0.0519	0.0624	0.0792		0.0653				0.07		0.06
F226V	0.103				0.114	0.0825	0.0709		0.0638								0.0867		0.121	
L205S	0.0787				0.0775					0.0469		0.0613			0.0664					
L205Y	0.0963	0.088			0.0809	0.0388			0.061	0.0655	0.0604			0.0504	0.0582	0.049	0.0691	0.0673	0.0534	
G2I		0.167			0.15		0.0453		0.112	0.0502	0.0497				0.0986	0.0449	0.124		0.109	
W203D	0.0604	0.0518	0.0558		0.0594		0.0572							0.06	0.0693		0.0448	0.0536		0.0641
W203P	0.0686				0.0637	0.0399			0.0775	0.0453		0.0663		0.0629		0.0622		0.0457		
R204D	0.131	0.114	0.0654		0.0987	0.0551	0.066		0.0924	0.0588		0.072	0.0702	0.0595	0.0548	0.0604		0.0505	0.084	0.0621
G213H	0.0652				0.0702	0.0676			0.0559	0.0618		0.0587				0.0562				

Variant	area with substrate ENLYFQA	area with substrate ENLYFQC	area with substrate ENLYFQI	area with substrate ENLYFQQ	area with substrate ENLYFQS	area with substrate ENLYFQT	area with substrate ENLYFQW	area with substrate ENLYFQG	area with substrate ENLYFQH	area with substrate ENLYFQR	area with substrate ENLYFQV	area with substrate ENLYFQY	area with substrate ENLYFQF	area with substrate ENLYFQK	area with substrate ENLYFQD	area with substrate ENLYFQL	area with substrate ENLYFQM	area with substrate ENLYFQP	area with substrate ENLYFQN	area with substrate ENLYFQE
F218V	0.0904	0.0785	0.0373	0.0632	0.097	0.0637	0.0578		0.064		0.0484		0.0538	0.17	0.0537		0.0675		0.0681	
A207R	0.0744				0.0891				0.064	0.0954		0.0778					0.0757	0.0711		
V217L	0.0834			0.0547	0.0918													0.0567		
H215K	0.0753	0.0777			0.0764	0.0696	0.0602			0.047		0.0447		0.0615		0.059		0.0655	0.0376	
H215S	0.0598				0.0572					0.0439										
F6N		0.0999			0.0771	0.0643	0.0551		0.0738					0.0518					0.0734	
Q227D	0.148	0.119	0.0599	0.0737	0.124	0.0562	0.0762	0.132	0.103	0.056	0.066	0.0532			0.0922	0.0654		0.0624	0.0946	
G202I	0.066				0.0621		0.0539				0.0312			0.047		0.0336			0.0586	
V220S	0.0954		0.0492		0.11	0.0678	0.0656	0.0992	0.0849	0.0653				0.0654		0.0499	0.0899	0.0597		
K7V		0.0849	0.0524	0.0622	0.0698	0.06	0.0489		0.0617	0.0735					0.0879	0.0635				0.0617
K7H		0.141			0.107		0.0725			0.0657					0.0768					
N206C	0.0921		0.0561		0.0963	0.063	0.0757	0.144	0.069	0.0542	0.0618	0.075	0.0776		0.072	0.05			0.0657	0.0844
N206R	0.101	0.0924	0.0561		0.0882	0.0609		0.0801		0.0576			0.0862	0.0633		0.0775	0.0725	0.0801	0.0715	
S201E	0.104	0.0987	0.0551	0.0503	0.091	0.0742	0.0611	0.1	0.0954	0.0612				0.0463		0.0585			0.0676	
S201N	0.085	0.11			0.0893	0.055	0.082	0.0837		0.0605		0.0584	0.0764			0.063	0.0943		0.0558	
L211N	0.133		0.0571	0.0925	0.128	0.0417	0.0482		0.0983	0.0747		0.0865		0.0697	0.0896	0.0583	0.11	0.0725	0.0974	
P228W	0.124		0.0624		0.0967	0.0681			0.0951	0.0687	0.0766					0.06			0.0724	0.0725

Source: the supplement of paper PMC12217912
